US20210324028A1 (Pfizer, published 2021)

How the values were obtained:
Experiment in all cases: SPR, steady state
human IL-2Rβ [1] = biological target: T1, human IL-2Rβ (human, UniProt P14784 27-240, limits assumed)
T1 construct: also called hIL-2Rβ; IL-2 receptor beta
T1 sequence (looked up): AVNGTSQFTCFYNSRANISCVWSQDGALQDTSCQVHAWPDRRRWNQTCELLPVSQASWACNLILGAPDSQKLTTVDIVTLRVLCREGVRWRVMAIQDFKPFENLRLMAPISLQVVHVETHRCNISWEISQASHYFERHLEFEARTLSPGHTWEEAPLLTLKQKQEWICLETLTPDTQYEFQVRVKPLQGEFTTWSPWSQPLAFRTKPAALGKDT

human IL-15Rα [2] = biological target: T2, human IL-15Rα (human, UniProt Q13261 31-205, limits assumed)
T2 construct: also called hIL-15Rα; IL-15 receptor alpha

human IL-2Rβ [3] = biological target: T1, human IL-2Rβ; remark: listed apart in the source
human IL-15Rα [4] = biological target: T2, human IL-15Rα; remark: listed apart in the source
T2 sequence (Q13261 31-205 limits assumed): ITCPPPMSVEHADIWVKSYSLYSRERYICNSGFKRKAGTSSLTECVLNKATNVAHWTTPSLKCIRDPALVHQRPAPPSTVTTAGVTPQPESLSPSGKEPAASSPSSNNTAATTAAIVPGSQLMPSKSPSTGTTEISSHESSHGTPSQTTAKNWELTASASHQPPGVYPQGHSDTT

Kd (human IL-2Rβ [1]): 97.5 nM | Kd (human IL-15Rα [2]): 94.2 nM | Kd (human IL-2Rβ [3]): 109 nM | Kd (human IL-15Rα [4]): 91.9 nM
B1: hIL-15 V49R-GS-linker-8xHis-Avi tags (ligand)
chain: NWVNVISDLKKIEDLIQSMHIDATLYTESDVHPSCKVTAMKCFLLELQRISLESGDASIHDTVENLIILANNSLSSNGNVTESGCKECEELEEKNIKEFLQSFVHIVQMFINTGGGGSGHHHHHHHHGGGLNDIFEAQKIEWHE

Read-outs that look alike come from different tables or passages of the source.
